PMC4336329 (PLoS ONE, 2015)
In all, about 310,000 compounds went through this assay and about 2,200 (0.71%) showed an effect of 50% or more. Effects have a minus sign here. The list shows a part of the results.

target: human ether-à-go-go-related gene (hERG) potassium channel (human, UniProt Q12809); assay: primary screen, population patch clamp on CHO cells stably expressing hERG
Sequence (Q12809 whole entry, looked up): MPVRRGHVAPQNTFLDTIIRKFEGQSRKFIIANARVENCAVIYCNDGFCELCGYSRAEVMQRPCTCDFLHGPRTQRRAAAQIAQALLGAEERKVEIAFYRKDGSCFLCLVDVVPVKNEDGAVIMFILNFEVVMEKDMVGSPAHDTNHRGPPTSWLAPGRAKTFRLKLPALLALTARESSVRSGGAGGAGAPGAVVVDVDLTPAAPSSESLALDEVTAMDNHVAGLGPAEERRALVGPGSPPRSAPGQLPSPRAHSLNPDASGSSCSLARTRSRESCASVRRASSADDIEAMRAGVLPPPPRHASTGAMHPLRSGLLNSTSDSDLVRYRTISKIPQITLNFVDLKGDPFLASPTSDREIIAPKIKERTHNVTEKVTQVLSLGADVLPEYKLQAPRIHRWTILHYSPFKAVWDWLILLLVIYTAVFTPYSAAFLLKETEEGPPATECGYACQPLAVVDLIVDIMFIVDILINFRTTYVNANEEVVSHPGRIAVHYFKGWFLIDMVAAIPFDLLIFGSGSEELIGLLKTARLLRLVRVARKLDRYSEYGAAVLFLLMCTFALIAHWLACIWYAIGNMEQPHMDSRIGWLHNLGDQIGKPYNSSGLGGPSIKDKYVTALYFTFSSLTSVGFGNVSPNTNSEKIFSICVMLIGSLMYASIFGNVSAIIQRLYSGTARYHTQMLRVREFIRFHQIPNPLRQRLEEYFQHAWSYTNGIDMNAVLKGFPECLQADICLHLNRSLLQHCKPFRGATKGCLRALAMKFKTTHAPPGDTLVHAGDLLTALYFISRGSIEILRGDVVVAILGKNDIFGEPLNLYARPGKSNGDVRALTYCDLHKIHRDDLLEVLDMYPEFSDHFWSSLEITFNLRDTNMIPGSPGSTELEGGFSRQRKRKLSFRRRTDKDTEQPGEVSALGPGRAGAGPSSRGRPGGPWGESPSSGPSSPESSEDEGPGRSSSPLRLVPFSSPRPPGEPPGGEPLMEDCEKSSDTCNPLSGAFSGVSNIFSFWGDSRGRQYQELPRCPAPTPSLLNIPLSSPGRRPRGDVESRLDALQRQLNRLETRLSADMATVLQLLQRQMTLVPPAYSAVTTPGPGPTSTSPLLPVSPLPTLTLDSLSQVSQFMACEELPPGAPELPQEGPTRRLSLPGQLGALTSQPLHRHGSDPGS

Compound | hERG current change (%, negative = inhibition) at 1uM [%]
Cc1ccc(NC(=O)c2ccc(Cn3cc(Cl)cn3)o2)c(C)c1 | 8.12
CC(C)N1CCN(Cc2cc3c(cc2Cl)OCO3)CC1CCO (centres unmarked) | 5.63
Cc1cccc(C(=O)Nc2ccc3c(c2)C(=O)N(CC(C)C)C3=O)c1 | 17.1
CC(C)(C)NC(=O)c1cc(Cl)ccc1[N+](=O)[O-] | -10.3
C=CCN1C(=O)/C(=C\c2ccc(Oc3nc(N4CCOCC4)nc(N4CCOCC4)n3)c(OC)c2)SC1=S | 17
N#CC[C@H](Cc1ccccc1)N1CCN(CCc2ccccc2)CCC1=O | 16.1
CCC(C)(C)n1nnnc1C(c1ccc(OC)c(OC)c1)N1CCN(c2cccc(OC)c2)CC1 (centres unmarked) | 2.94
CC(=O)NC1C(OCCOc2ccc(Cl)cc2C)OC(CO)C(O)C1O (centres unmarked) | 12.9
COc1ccc(C/C(C)=N/NC(=O)C2COc3ccccc3O2)cc1 (centres unmarked) | 9.03
Cc1ccc(C(=O)NCCNc2nc3cc(C)c(C)cc3cc2C)cc1 | 0.614
COCCn1c(-c2ccc(Cl)cc2)nc2c(c(=O)c3ccccc3n2C)c1=O | 9.55
COc1cc(-c2noc(CCC(=O)NC3CCCC3)n2)cc(OC)c1OC | 5.34
CCOc1cc2[nH]c(=O)n(CCCC(=O)NCc3ccc(OC)cc3)c(=O)c2cc1OCC | 13.2
O=C(NCc1ccco1)c1cc(-c2ccccc2)nn1CC1CC(c2cccnc2)=NO1 (centres unmarked) | -40
Cc1cc(Cl)ccc1OCCCC(=O)NNC(=O)c1ccncc1 | -1.24
CC(=O)Nc1ccccc1C(=O)OCc1cccc(F)c1 | -5.07
COCCn1c(C)cc(C(=O)CSc2ccc3ccccc3n2)c1C | -3.05
COc1ccc2[nH]c(=O)c(CN(c3ccc(C)c(C)c3)S(C)(=O)=O)cc2c1 | 7.75
CCCCC(=O)Nc1c(O)c2ccccc2[nH]c1=O | 1.78

Compound | hERG current change (%, negative = inhibition) at 1uM [%]
CCOC(=O)CC1(NC(=O)c2cc(COc3cccc(OC)c3)on2)CCCCC1 | 10.3
COc1ccc(N(CC(=O)NC2CCCCC2)C(=O)CNC(=O)c2ccco2)c(OC)c1 | 9.86
COc1ccccc1N1CCN(C(=O)CSc2nnc(NC(=O)C3CC3)s2)CC1 | 5.31
CC1(C)CC2(CC(c3ccccc3)c3ccc(O)cc3O2)NC(=S)N1 (centres unmarked) | 19.5
Nc1nc(SCC(=O)NN(c2ccccc2)c2ccccc2)n[nH]1 | 3.95
Cc1cc(C=O)c(O)cc1O | 7.64
CCN1CC=C2C(C#N)=C(N)C(C#N)(C#N)[C@H](c3cccc(OC)c3OC)[C@H]2C1 | 1.1
COc1ccccc1Oc1c(C)oc2c(CN(C)C)c(O)ccc2c1=O | 5.97
COC(=O)COn1c(-n2nc(C)cc2C)nc2ccccc2c1=O | 14.6
CCOc1ccc2nc(NC(=O)c3cccc(-c4cc5ccccc5oc4=O)c3)sc2c1 | 10.8
O=C(COc1ccc(Cl)cc1Cl)Nc1noc2ccccc12 | 20
CCOc1ccc(N2CC(C(=O)NC(C)C)CC2=O)cc1 (centres unmarked) | 11.2
CCOC(=O)C(C(=O)OCC)N(C#N)c1nc(OC)nc(N(C)C)n1 | 0.944
N#Cc1cccc(NC(=O)COC(=O)CCc2nc3ccccc3c(=O)[nH]2)c1 | 8.45
COc1cccc(C(=O)OCC(=O)c2ccc(Br)s2)c1OC | 6.08
CC1(C)Cc2cccc(Oc3ccc(S(=O)(=O)N4CCCC4)cn3)c2O1 | -5.56
COC(=O)c1cc(S(=O)(=O)N2CCCC2=O)c(Cl)cc1Cl | 12.6
C#CCSc1nnc(-c2cc3c(C(F)(F)F)nn(C)c3s2)n1C | 15.5
CC(C)(CNC(=O)c1ccccc1NS(C)(=O)=O)N1CCCCC1 | 6.69

Compound | hERG current change (%, negative = inhibition) at 1uM [%]
Fc1ccccc1NC(=S)N1CCOCC1 | 12.2
Cc1ccn2c(=O)nc(SCc3cccc(C(F)(F)F)c3)nc2c1 | 2.48
CCOc1ccc(S(=O)(=O)Nc2nc3cc(OC)ccc3s2)cc1 | 9.1
CCC/C=C(\CCC)C(NC(=O)c1ccc(C(F)(F)F)cc1)c1ccccc1 (centres unmarked) | 17.5
Cc1cccc(NC(=O)c2nc(-c3ccccc3)n(-c3ccccc3)n2)c1C | -9.78
O=C(NCCc1ccccc1)c1cccc([N+](=O)[O-])c1 | 14.4
COC(=O)c1cc(C(=O)NNC(=O)c2ccc3c(c2)OCO3)cc([N+](=O)[O-])c1 | 4.47
Cc1ccc(C(=O)OCC(=O)c2ccc(CC(=O)N3CCOCC3)s2)cc1C | -13.5
NS(=O)(=O)c1ccc(NC(=O)CSc2nc3ccccc3[nH]2)cc1 | -0.413
Cc1ccc(CS(=O)(=O)CCC(=O)NCCCOC(C)C)cc1 | 7.23
O=C(NCc1ccccc1Cl)c1ccc(S(=O)(=O)Nc2cccc(C(F)(F)F)c2)cc1 | 12.6
Cc1ccc(OC(C)C(=O)Nc2ccccc2C(=O)N2CCN(C)CC2)cc1 (centres unmarked) | 5.52
COc1cccc(-c2ncc3ccccc3c2COC(=O)c2ccco2)c1 | 11.7
CCC1(CC)C(=O)N=C2c3ccccc3C(=O)N21 | 0.387
COc1ccc(NC(=O)CCNS(=O)(=O)c2ccc3c(c2)CCC(=O)N3)cc1 | 4.36
COCCCN(C(=O)c1ccccc1F)c1nc(-c2ccc(OC)cc2)cs1 | 12
CCO/C(C)=C1\C(=O)N(CC)c2ccccc21 | 6.14
CCC(C(=O)NC1CCCC1)N(C(=O)Cn1nnc(-c2ccc(OC)c(OC)c2)n1)C1CCCCC1 (centres unmarked) | 0.313
